These results are taken from ChEMBL document CHEMBL4888484, “Replenishing the malaria drug discovery pipeline: Screening and hit evaluation of the MMV Hit Generation Library 1 (HGL1) against asexual blood stage Plasmodium falciparum ,using a nano luciferase reporter read-out” (2022).

Among all 150,000 compounds or so, about 540 (0.36%) showed an effect of 50% or more. Some of the results follow.

The experiment concerns Plasmodium falciparum. The experiment is described as follows: Primary screen in NF54 nanoGlo assay, in single point, at 2uM, 72h; a lower Z score goes with more inhibition. The experiment is classed as functional, Erythrocyte. The note with it: timepoint 72 hour.
For orientation: % Inhibition means the drop in the measured response relative to a control, in per cent. With `NC(C(=O)O)C(O)c1ccc(OCc2ccccc2)c(OCc2ccccc2)c1` (stereo not given), the “% Inhibition” value is 0% and the Z score is reported as -0.06.
For `CCCNc1ccccc1NC(=O)CNC(C)=O`, the “% Inhibition” value was -16% and the Z score amounted to 1.67.
For `CCc1nnsc1C(=O)Nc1ccc2oc(C3CC3)nc2c1` the same measures were -7% and 0.86.
Take `Cc1nn(Cc2csc(C(C)C)n2)c(C)c1[C@@H]1CCCC(=O)N1`: the “% Inhibition” value is -5% and the Z score is listed as 0.5.
As for `Cc1cc(C)nc(CN(C)c2ncccc2C(N)=O)c1`, the “% Inhibition” value was found to be 4% and the Z score is given as -0.58.
The matching figures for `C[C@@H](C(=O)N(C)Cc1ccc2c(c1)CN(C)C2)N1CCN(C)CC1`: -5% and 0.94.
The matching figures for `Cc1cc(-c2noc(C[C@H]3CCC(F)(F)C3)n2)cc2nc[nH]c12`: -17% and 1.41.
For `CCCCC(CC)C(=O)NC(C)CC(=O)c1ccc(F)cc1` (stereo not given) the same measures were 3% and -0.36.
On to `Cc1cnc(C)c(-c2cc(O)c3c(c2)CN(CCCn2cnnn2)CCO3)n1`, for which the “% Inhibition” value was 3% and the Z score is reported as -0.61.
For `COc1cc(Cl)c(C)cc1NC(=O)[C@@H](C#N)C(=O)c1cc(C)no1` the same measures were -29% and 3.35.
The matching figures for `Brc1cccc2c(-c3cnn(-c4ccccc4)c3)n[nH]c12`: -2% and 0.21.
For `COCCCNC(=O)CCN(CC(C)C)C(=O)c1cc(C)oc1C` the same measures were -11% and 1.46.
As for `C[C@@H](NC(=O)N1CCC(C(=O)O)CC1)c1ccc(Cl)cc1Cl`, the “% Inhibition” value is recorded as -10% and the Z score is reported as 1.23.
The matching figures for `O=C(C[C@H](n1cccn1)C(F)(F)F)N1CCN(C2CC2)c2ccc(Cl)cc21`: -2% and 0.26.
The matching figures for `O=C(NC1CC1)c1ccc(OCC(=O)N(C2CCCC2)C2CC2)cc1`: -13% and 1.89.
As to `NC(=O)c1ccc(-c2cnc3ccccc3c2)nc1`, the “% Inhibition” value was -17% and the Z score was 3.25.
For `Cc1cnc(NC(=O)[C@H]2CCCC(C)(C)C2)[nH]1` the same measures were -2% and 0.29.
The matching figures for `CC1CN(c2cncc(Br)c2)CC(C)O1` (stereo not given): 0% and 0.
For `C[C@@H](C(=O)Nc1ncccc1OCc1cccnc1)c1ccsc1` the same measures were -12% and 1.81.
For `CC(C)(C)c1nc2ccc(S(=O)(=O)N3CCO[C@H](C(F)F)C3)cc2s1`, the “% Inhibition” value is -11% and the Z score stood at 2.14.
For `Cc1nn(C)cc1C(=O)N[C@@](C)(CO)C1CCCCC1` the same measures were -8% and 0.77.
For `CCCn1cc(CN/C(=N\c2cc(C)cc(C)c2)NC(=O)c2cccc(N(C)C)c2)c(C)n1` the same measures were 1% and -0.12.
For `OCc1nc2cc(-c3cccnc3)ccc2[nH]1` the same measures were 2% and -0.31.
Consider `O=C(NCCCNC(=O)N1CC2CCCC2C1)C1CCC1` (stereo not given), for which the “% Inhibition” value is recorded as -4% and the Z score worked out at 0.66.
The matching figures for `CCn1ccc(C(=O)N2CCC(Cc3nnc(C)[nH]3)CC2)n1`: -18% and 2.58.
As to `Cc1cnn(CC(C)NC(C)c2ccc(C(F)F)nc2)c1` (stereo not given), the “% Inhibition” value is given as -8% and the Z score is recorded as 0.85.
Turning to `Cc1ccc(C2OCC3(CO)COC(c4ccc(C)cc4)N23)cc1` (stereo not given), the “% Inhibition” value is given as -13% and the Z score came to 1.37.
Turning to `CC(C)N1C[C@@]2(CCCN(c3cc(N)nc(N)n3)C2)CCC1=O`, the “% Inhibition” value turned out to be 0% and the Z score is listed as 0.
For `CC(C)(C)OC(=O)NCc1nnc(C2(c3cccc(F)c3)CCC2)o1`, the “% Inhibition” value is reported as -4% and the Z score was found to be 0.31.
Take `O=C(CCc1ccccc1F)N1CC(N2C(=O)CNC2=O)C1`: the “% Inhibition” value is listed as -5% and the Z score was 0.98.
For `CC(C)COC[C@H](C)NC(=O)C1(C)CCCC1` the same measures were -3% and 0.39.
Turning to `Cc1cnc(NCCN2CCC(CO)CC2)nc1`, the “% Inhibition” value was -5% and the Z score stood at 1.02.
Regarding `CC(C)c1cc(C(=O)NC(C)(CO)CO)no1`, the “% Inhibition” value was -7% and the Z score turned out to be 1.07.
For `Cc1ccc(OS(=O)(=O)c2ccccc2)c(-n2nc3ccccc3n2)c1` the same measures were -9% and 1.22.
The matching figures for `CC(C)N(C)S(=O)(=O)NC[C@@H](c1ccco1)N1CCCC1`: 0% and 0.02.
As for `C[C@@H](CN(C(=O)c1ccoc1)c1ccccc1)NC(=O)c1ccoc1`, the “% Inhibition” value was -9% and the Z score came to 1.35.
The matching figures for `O=C(c1cc(NS(=O)(=O)c2ccccc2)ccn1)N1CCCCC1`: -6% and 0.88.
With `Cc1nc2ccc(C(=O)NC(C)(C)CN3CCOCC3)cc2n1C`, the “% Inhibition” value was -6% and the Z score came to 0.91.
The matching figures for `Cc1cc(NC(=O)c2cc3nc(N4CCCCC4)sc3s2)ccc1F`: 1% and -0.2.
For `C=CCNC(=O)C1(NCc2c(C)noc2C)CCCCC1` the same measures were -8% and 1.04.
The matching figures for `CC[C@H](NS(=O)(=O)N1CCCCCC1)c1nccs1`: -14% and 1.84.
With `CC(C)(C)C(=O)N1CCC[C@H](c2nc(-c3cncc(O)c3)no2)C1`, the “% Inhibition” value was -17% and the Z score was found to be 1.87.
The matching figures for `NC(=O)N[C@@H](CC(=O)N1CCCCCC1)c1ccccc1`: -7% and 1.39.
In the case of `CCN(C)C(=O)c1ccc(COc2ccc3c(c2)[C@H](c2ccc(F)cc2)N(C(=O)C2CCCC2)CC3)o1`, the “% Inhibition” value is on record as -17% and the Z score is on record as 2.85.
The matching figures for `CCn1ncc(Br)c1C(=O)N[C@H]1CCC(=O)N(C)C1`: -9% and 1.7.
For `CCCn1cnc2cc(CNC(=O)c3cnccn3)ccc21` the same measures were -16% and 2.61.
The matching figures for `COc1ccc([C@H](CNC(=O)c2oc3cc(Br)ccc3c2C)N2CCCCC2)cc1`: 5% and -0.54.
Regarding `CCN(CCS(=O)(=O)c1ccc(C)cc1)Cc1cccc(C(=O)O)c1`, the “% Inhibition” value is -11% and the Z score was determined as 1.58.
For `CN(C)CCOc1cc2c3c(c1)CCCN3CCC2` the same measures were -34% and 4.03.
For `O=C(c1nn(-c2ccccc2)cc1O)N1CCN(c2cccc(Cl)c2)CC1` the same measures were -7% and 1.47.
The matching figures for `CCc1cc([C@@H]2CCCN2S(=O)(=O)c2ccccc2C)on1`: -5% and 0.74.
For the molecule `COc1cc(N(Cc2ccsc2)C(=O)CC#N)ccc1Cl`, the “% Inhibition” value is -14% and the Z score amounted to 1.44.
For `O=C(Cn1c(=O)n(Cc2ccc(C(=O)NCCc3ccc(Cl)cc3)cc2)c(=O)c2ccccc21)NC1CCCC1` the same measures were -3% and 0.4.
For `Cc1ccc([C@@H](C)C(=O)N2CC(c3nc(-c4ccccc4)no3)C2)o1` the same measures were 4% and -0.55.
For `Cc1ccc2c(c1)Oc1cc(Oc3ccccc3C)c(S(=O)(=O)N3CCCCC3)cc1C(=O)N2` the same measures were -11% and 1.52.
